Measurements as given in PubChem BioAssay AID900 (National Center for Advancing Translational Sciences (NCATS), 2007).
Hit rate of the full screen: of about 75,000 compounds, about 20 (0.03%) were called active. Inconclusive results, whose numbers are uncertain, are shown with a selection of clear calls. Calls follow the shape of the dose curve; as a rule, active = well fitted inhibition curve with a large enough effect; inconclusive = small, poorly fitted or top-dose-only effect; inactive = flat fitted curve, though single readings scatter. No potency is given beside an inconclusive call; the fits are too rough.

These molecules were tested against Caspase-1 (Homo sapiens) (UniProt P29466) (assay: qHTS Assay for Allosteric/Competitive Inhibitors of Caspase-1). Conditions: Caspase-1 enzyme, Ac-WEHD-AFC fluorogenic rate; activity change, negative = inhibition: at 57.5 µM (top of the series).
Source text: NIH Molecular Libraries Screening Centers Network [MLSCN]
NIH Chemical Genomics Center [NCGC]
PI Name: Dr. James Wells,
Dr. Enrique Perez-Paya, Dr.Janice Williams, Dr. Dennis Wolan, a person
The caspases (Cysteine Aspartyl Protease) comprise a related family of 14 dimeric proteases that are critical mediators of apoptosis (programmed cell death) and inflammation. The caspases represent an important class of drug targets for stroke, ischemia, cancer and inflammatory diseases. […] One goal of this project was to identify compounds that act as allosteric inhibitors via stabilizing the procaspase form of the enzyme. Previous work in Well's laboratory has shown that such allosteric inhibitors can be identified and these act by binding at the dimer interface of enzyme (Hardy, Lam et al., 2004).
The biochemical assay was configured using purified caspase 1 at a high enzyme concentration to promote formation of the homodimers and thus facilitate the identification of allosteric inhibitors. The overall goal was to identify reversible inhibitors with better drug-like properties than the currently available set of aspartyl-containing peptidomimetics that covalently bind the active site. Caspase 1 was assayed using the profluorescent substrate Ac-WEHD-AFC. After initiation of the assay with substrate the plates were rapidly read using an automated robotic system (Kalypsys, Inc.) to maintain consistent timing. A kinetic mode of detection was used where the initial rate was collected (estimated final product formation was ~10%). Compounds were screened as a concentration-titration series that ranged from 57 uM to 0.7 nM. Below is the protocol used for caspase 1.
NCGC Assay Protocol Summary:
Caspase 1 was prepared in buffer (50 mM HEPES pH 7.5, 50 mM KCl, 200 mM NaCl, 10 mM DTT, 0.1% CHAPS) at a concentration of 66.6 nM and 3 uL was dispensed to all wells using black solid Kalypsys 1536-well plates. 20 nL of DMSO containing compounds was added using a pin-tool (Kalypsys Inc.) to columns 5-48. Then 20 nL of DMSO solution from a control plate was added to columns 1-4. Controls were: Column 1, 16 point titration with each concentration in duplicate (1:1 dilutions in DMSO; final starting concentration was 57 uM) of the caspase 1 inhibitor Ac-WEHD-CHO (Alexis Biochemicals); Column 2, a 16 point titration with each concentration in duplicate of the free AFC fluorophore prepared in DMSO (Alexis Biochemicals), final starting was 40 uM; Column 3 neutral (DMSO only) control; Column 4: DMSO alone, to serve as a negative control (no substrate was added). Then 1 uL of 20 uM the substrate Ac-WEHD-AFC (Alexis Biochemicals) prepared in the same buffer was dispensed to all wells except columns 2 and 4 and the plates were immediately transferred (< 1 min) to the Viewlux. The plates were then exposed using 405 nm excitation/520 nm emission filters for 4 sec and read at 20 sec intervals for 3 min. Final enzyme concentration was 50 nM and the final substrate concentration was 5 uM.
Concentration-response curves were fitted to the data calculated from slope of the linear regression of fluorescent intensity versus time (the rate). The concentration-effect curves were then classified based on curve quality (r2), response magnitude and degree of measured activity. […] Inconclusive compounds had appreciable concentration-dependent effects on both the measured rate and the interpolated basal fluorescence intensity at the start of the reaction but where the basal fluorescent intensity was marginal (e.g. < 10-fold). Inconclusive compounds also encompass highly fluorescent compounds (>100-fold increases in fluorescent intensities values relative to controls) where artificial concentration-dependent decreases in the rate occurred at high compound concentrations due to fluorescent interferences.
Keywords: Caspase 1, proteases, profluorescent, MLSMR, MLSCN, NIH Roadmap, qHTS, NCGC
Potency is read from the fitted curve at half-maximal effect; tags tell the direction and shape of the fitted curve or compound fluorescence and quenching.

Structure (SMILES)	Potency	activity change, negative = inhibition
COc1cc2c(c(OC)c1OC)-c1ccc(OC)c(=O)cc1[C@@H](NC(C)=O)CC2	inconclusive [inhibitor, single point]	
N[C@@H](Cc1cc(O)c(O)cc1O)C(=O)O	inconclusive [inhibitor, partial curve]	
CN1CCN(C(=O)COc2ccc3ccccc3c2Br)CC1	inconclusive [inhibitor, full curve]	
Cc1cc(N=Nc2ccccc2C)ccc1N	inactive	
COc1cc2c(cc1O)[C@H]1Cc3ccc(OC)c(O)c3CN1CC2	inconclusive [inhibitor, single point]	
O=C(Nc1ccccc1)N1CC[C@@]2(CCCNC2)C1		inconclusive: -16% [inhibitor]
NS(=O)(=O)C[C-]1C=C[CH]([Sb-]([Cl])([Cl])([Cl])([Cl])[Cl])C=C1.c1ccncc1 (configuration not stated)		inactive: 2.08% [at 11.5 µM]
O=C1NC(=O)C2(Cc3ccccc3N3CCCC32)C(=O)N1Cc1ccccc1 (configuration not stated)	inconclusive [inhibitor, partial curve]	
O=C(O)CF	inconclusive [inhibitor, partial curve]	
Clc1nc(Cl)nc(Cl)n1	inactive	
CCn1nc(-c2ccccc2)nc2c(=O)n(C)c(=O)nc1-2	active: 0.794 µM	
Oc1c(Cl)c(Cl)cc(Cl)c1Cl	inconclusive [inhibitor, single point]	
Cc1cc(OCC(=O)OC(C)C)c2c3c(c(=O)oc2c1)CCCC3	inconclusive [inhibitor, full curve]	
COCC(=O)N1CCC2(CCCN(Cc3ccncc3)C2)CC1	inconclusive [inhibitor, partial curve]	
CCOC(=O)/C=C1\Nc2ccccc2SC1=O	inconclusive [inhibitor, single point]	
COc1cc2c(cc1O)C[C@H]1c3c(cc(OC)c(O)c3-2)CCN1C	inconclusive [inhibitor, partial curve]	
CC[N+](C)(CC)CCC[n+]1c(-c2ccccc2)c2cc(N)ccc2c2ccc(N)cc21	inconclusive [inhibitor, full curve]	
Cc1ccc(-n2c(O)c(C=Nc3ccccc3N)c(=O)[nH]c2=O)cc1C		inconclusive: -16.7% [inhibitor]
C=C(CC1(C(C)NP(=O)(c2ccccc2)c2ccccc2)CC1)c1ccccc1 (configuration not stated)	inactive	

Structure (SMILES)	Potency	activity change, negative = inhibition
CCCN1CCC[C@H](c2cccc(C#N)c2)C1	inconclusive [inhibitor, single point]	
Cc1ccc(N2C(=O)NC(=O)C3(Cc4ccccc4N4CCN(c5ccccc5)CC43)C2=O)cc1 (configuration not stated)	inconclusive [inhibitor, single point]	
COc1cc2c(cc1O)-c1c(O)c(OC)cc3c1[C@H](C2)N(C)CC3	active: 31.6 µM	
CCNC(=O)[C@@H]1O[C@@H](n2cnc3c(N)ncnc32)[C@H](O)[C@H]1O	inactive	
Nc1ccnn1C1CCNCC1	inactive	
Cc1noc(C)c1C(=O)N1CCC2(CC1)OCCO2	inactive	
CCc1c(C(=O)OC)ncc2[nH]c3cc(OC)c(OC)cc3c12	inconclusive [inhibitor, single point]	
CCCCC/C=C\C/C=C\C/C=C\C/C=C\CCCC(=O)O	inconclusive [inhibitor, partial curve]	
CC(=O)[O][Hg][c]1ccccc1	inconclusive [quencher]	
CC(C)(OO)c1ccccc1	inactive	
c1ccc2c(c1)[nH]c1cnccc12	inactive	
CC(C)Br	inactive	
CCN(CC)c1ccc(N=Cc2c(O)n(CCC3=CCCCC3)c(=O)[nH]c2=O)cc1	inconclusive [inhibitor, full curve]	
Oc1ccc(Cl)cc1Cc1cc(Cl)ccc1O	inconclusive [inhibitor, single point]	
O=C1NC(=O)C2(Cc3ccccc3N3CCCC32)C(=O)N1c1ccccc1 (configuration not stated)	inconclusive [inhibitor, partial curve]	
O=C(O)c1cc[c]([Hg][Cl])cc1	inconclusive [quencher]	
O=C(Oc1ccccc1)N1CCC2(CCCN(Cc3ccccc3)C2)CC1	inactive	
CN=C=O	inconclusive [inhibitor, partial curve]	
